Experimental data from publication PMC3364239.
Where “and” joins values, the source holds several entries; their conditions need not be identical. Equal values may be shown once. Values belong to the substance of their own block, whether it stands above or below them.

Experiments:
[1] = target: Venus-CaMKIIα, expressed in HeLa cells (mouse) (UniProt P11798); experiment: FRET or BRET; hetero-FRET (Cerulean donor, Venus acceptor) in living HeLa cells, E-FRET method on an automated wide-field microscope; FRET efficiency against fraction donor, one point a cell, linear fit
[2] = target: V-CaMKIIα[TT305/306DD] (mouse) (UniProt P11798); experiment: brightness analysis by fluorescence correlation spectroscopy (FPFA); supernatants of homogenates of transfected HEK 293 cells (passive lysis buffer, 100,000 x g for 1 hour), diluted; two-photon excitation at 950 nm, 10.2 mW; room temperature; brightness normalized to that of Venus monomer
[3] = target: Venus-tagged calcium-calmodulin dependent protein kinase-II alpha (Venus-CaMKIIα), expressed in HEK 293 cells (mouse) (UniProt P11798); experiment: brightness analysis by fluorescence correlation spectroscopy (FPFA); living HEK cells transfected with RNA; 6 mW excitation; room temperature; normalized brightness from the linear fit of the V2-V6 brightness controls in cells
[4] = target: Venus-tagged calcium-calmodulin dependent protein kinase-II alpha (Venus-CaMKIIα), expressed in HEK 293 cells (mouse) (UniProt P11798); experiment: brightness analysis by fluorescence correlation spectroscopy (FPFA); supernatants of homogenates of transfected HEK 293 cells (passive lysis buffer, 100,000 x g for 1 hour), diluted; two-photon excitation at 950 nm, 10.2 mW; room temperature; brightness normalized to that of Venus monomer

UniProt P11798, sequence (P11798 whole entry): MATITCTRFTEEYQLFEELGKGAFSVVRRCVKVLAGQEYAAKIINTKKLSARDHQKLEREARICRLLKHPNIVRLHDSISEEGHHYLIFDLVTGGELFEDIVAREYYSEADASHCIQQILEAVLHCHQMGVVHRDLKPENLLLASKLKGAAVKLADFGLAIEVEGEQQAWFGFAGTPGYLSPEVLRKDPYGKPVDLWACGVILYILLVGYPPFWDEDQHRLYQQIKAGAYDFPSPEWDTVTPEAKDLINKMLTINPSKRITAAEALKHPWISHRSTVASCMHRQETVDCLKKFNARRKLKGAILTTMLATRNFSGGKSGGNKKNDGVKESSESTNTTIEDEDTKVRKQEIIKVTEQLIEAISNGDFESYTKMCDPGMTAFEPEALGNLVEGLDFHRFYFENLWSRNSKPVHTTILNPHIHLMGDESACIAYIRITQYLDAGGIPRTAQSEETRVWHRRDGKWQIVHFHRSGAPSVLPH

FRET efficiency [1]: 0 to 40%
FRET efficiency (y-intercept at donor fraction zero) [1]: 39.4%
Substance: Cerulean-CaMKIIα (a stretch of the chain, sequence left out) (enzyme; other documents disagree on this pair)

stoichiometry N [2]: 10.7
Substance: V-CaMKIIα[TT305/306DD] (a stretch of the chain, sequence left out) (enzyme; other documents disagree on this pair)

stoichiometry N [3]: 11.9 and 8 subunits to 14 subunits (2×)
stoichiometry N [4]: 10.2
Substance: Venus-tagged calcium-calmodulin dependent protein kinase-II alpha (Venus-CaMKIIα), expressed in HEK 293 cells (a stretch of the chain, sequence left out) (enzyme; other documents disagree on this pair)
